Experimental data as given in ChEMBL document CHEMBL1201862, “PubChem BioAssay data set” (2004).
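Step 1: Grow cells in 96-well plates. Step 2: Expose to compound for 48 hours at 5 concentrations. Step 3: Interpolate endpoints linearly; if unreached, use highest concentration. GI50 = concentration required for 50% inhibition of growth.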 The source made the active and inactive calls. No stated cut-off is given here; in the data, active = GI50 up to about 1.1 µM and inactive = higher.

Each compound was assayed on NCI-H322M (assay: DTP human tumour cell line panel, 48 h).

| Compound | GI50 |
| --- | --- |
| CCC(=O)NC(Nc1cccc(F)c1)(C(F)(F)F)C(F)(F)F | inactive: > 100 µM |
| O=C1CCCC2=C1CC1=C(CCCC1=O)N2c1cccc2ccccc12 | inactive: > 100 µM |
| Cc1cc(C)nc(NS(=O)(=O)c2ccc(Nc3c4ccccc4nc4c(C(=O)Nc5ccc(S(=O)(=O)Nc6cc(C)on6)cc5)cccc34)cc2)n1 | inactive: 23.7 µM |
| COC(OC)[C@@H]1OC[C@H](n2ccc(=O)[nH]c2=O)[C@H]1O | inactive: > 100 µM |
| c1ccc(CN2CCN3CCN(CC2)CCN(Cc2ccccc2)CC3)cc1 | inactive: 15 µM |
| O=C(/C=C/c1ccco1)c1cccc(C(=O)/C=C/c2ccco2)n1 | inactive: 49.8 µM |
| CCOC(=O)/C=C\[C@H]1OC(C)(C)O[C@H]1[C@H](O)[C@H]1COC(C)(C)O1 | inactive: > 100 µM |
| O=C(/C=C/c1ccc(Oc2cc(C(=O)/C=C/c3ccc(O)cc3)c(O)cc2O)cc1)c1ccc(O)cc1O [RHUSCHALCONE II] | inactive: 7.28 µM |
| CN(/N=C/c1cccc2cccnc12)c1c([N+](=O)[O-])cc([N+](=O)[O-])cc1[N+](=O)[O-] | inactive: > 100 µM |
| CC1CCC(O)C(C(O)CC2CC(=O)N(C)C(=O)C2)C1 (stereo unspecified) | inactive: > 100 µM |
| CC(=O)Oc1ccc(/C=C/C(=O)OCCOC(=O)/C=C/c2ccc(OC(C)=O)c(OC(C)=O)c2)cc1OC(C)=O | inactive: 23.8 µM |
| CO[C@]12C[C@H](CNC(=O)c3cc(Br)c(Br)[nH]3)O[C@H]1NC(=O)N2 | inactive: > 100 µM |
| CCCCN(CCCC)C(=O)C(=O)C(C(=O)C(=O)OC)c1nc2ccccc2o1 (stereo unspecified) | inactive: > 100 µM |
| CC[C@@]1(O)C(=O)OCc2c1cc1n(c2=O)Cc2cc3c(OC)cccc3nc2-1 | active: 0.794 µM |
| CCN(CC)Cc1cc(/N=N\c2c(O)ccc3c(/N=N\c4ccc(O)c(CN(CC)CC)c4)c(O)ccc23)ccc1O | inactive: 5.65 µM |
| C/C(=N\NC1=NCCN1)c1cn(C2=NCCN2)nc1C | inactive: > 100 µM |
| CC1=C(C(=O)Nc2c(C)cccc2C)C(c2ccc3c(c2)OCO3)C(C(=O)Nc2c(C)cccc2C)=C(C)N1 | inactive: 13.8 µM |
| CCCCC(=O)c1ccc2ccccc2c1O | inactive: > 100 µM |
| CC(/C=C/c1ccccc1)=N\N=C(C)\C=C\c1ccccc1 | inactive: > 100 µM |
| CCn1c(=O)c2nc(SC)sc2n(-c2ccccc2)c1=O | inactive: > 100 µM |
| C=C1C(C2(C)C=CC(=O)OC3(C)COC(=O)CC32)C(OC=O)C(OC(=O)C(O)C(C)CC)C2(C)C(c3ccoc3)CC(OC(C)=O)C12O (stereo unspecified) | inactive: > 100 µM |
| C/C(=N\NC(=O)c1ccncc1)c1ccc2ccccc2c1O | inactive: 4.16 µM |

| Compound | GI50 |
| --- | --- |
| N#CCCN(CCC#N)c1ccc(C(=N/c2ccc(Cl)cc2)/N=N/c2ccccc2)cc1 | inactive: > 100 µM |
| COc1ccc(/N=N/C(=O)NC(CC(C)C)C(=O)NCC(=O)O)cc1 (stereo unspecified) | inactive: > 45.8 µM |
| CCCCCCNC(=O)c1cc(C#Cc2cc(OC)ccc2OC)ccc1OC | inactive: > 100 µM |
| OC[C@H]1O[C@@H](n2cnc3c(S)ncnc32)[C@H](O)[C@@H]1O [THIOINOSINE] | inactive: > 2500 µM |
| C#CC1NC(=O)C1N(CC)CC (stereo unspecified) | inactive: > 100 µM |
| COC1(O)c2cccc(Cl)c2C(=O)N1C1(C(N)=O)CCCCC1 (stereo unspecified) | inactive: > 100 µM |
| S=C1N=C2C(=N1)n1c3c(c4ccccc41)CCCC23 (stereo unspecified) | inactive: > 100 µM |
| C[C@@](O)(/C=C/[C@H]1CC=CC(=O)O1)[C@@H](C[C@@H](O)\C=C/C=C\C=C\CO)OP(=O)(O)O [FOSTRIECIN SODIUM] | inactive: 3.56 µM |
| [N-]=[N+]=CC(=O)OC1Cc2ccccc2C1 | inactive: 98.6 µM |
| COc1ccc(N[C@H](C[S+]([O-])c2ccc(C)cc2)C(F)(F)C(F)(F)F)cc1 (stereo partly specified) | inactive: > 100 µM |
| CN(C)c1n2c3cc([N+](=O)[O-])ccc3[n+]3c(N(C)C)n4ccccc4c3c2c2cccc[n+]12.[O-][Cl+3]([O-])([O-])[O-].[O-][Cl+3]([O-])([O-])[O-] | inactive: > 100 µM |
| Cc1nsc2cc(Cl)n(C)c(=O)c12 | inactive: > 100 µM |
| CSC1=NS(=O)(=O)c2cc(C(=O)NN(C)C(=O)c3cc4c(cc3Cl)SC(SC)=NS4(=O)=O)c(Cl)cc2S1 | inactive: > 10 µM |
| O=c1oc2ccc(-n3c(=O)c4ccccc4c4ccccc4c3=O)cc2c2ccccc12 | inactive: > 100 µM |
| CC(=S)NC1C(Oc2ccc3c(C)cc(=O)oc3c2)OC(CO)C(O)C1O (stereo unspecified) | inactive: > 100 µM |
| Nc1ccc(-c2nc3ccccc3s2)cc1C#Cc1ccccc1 | inactive: 17.2 µM |
| Cc1[nH]c2ncn(N)c(=N)c2c1Cc1ccccc1 | inactive: > 100 µM |
| Oc1ccnc(SCc2ccc(Cl)cc2)n1 | inactive: > 100 µM |
| CC(C)(C)[Si](C)(C)Oc1ccc(C2CNC(=O)C23CCC(=O)N3Cc2ccccc2)cc1 (stereo unspecified) | inactive: 19 µM |
| CC1OC(OC2C(O)COC(OC3C(C)OC(OC4C(OC(=O)[C@]56CCC(C)(C)C[C@@H]5C5=CCC7[C@@]8(C)C[C@H](O)[C@H](OC9OC(CO)C(O)C(O)C9O)[C@@](C)(CO)[C@@H]8CC[C@@]7(C)[C@]5(C)CC6)OCC(O)C4O)C(O)C3OC3OCC(O)(CO)C3O)C2O)C(O)C(O)C1O (stereo partly specified) | inactive: 6.24 µM |
| CC(C)NC(=O)OCc1c(COC(=O)NC(C)C)c(-c2cc[n+](COC(=O)C(C)(C)C)cc2)n2c1CCC2 | inactive: > 100 µM |
| ClCCc1ccccc1CC1=NCCc2ccccc21 | inactive: > 100 µM |

| Compound | GI50 |
| --- | --- |
| Cc1c(C)c(C)c(CSC(=N)N)c(C)c1C | inactive: 15.4 µM |
| S=c1sc2sc(=S)sc2s1 | inactive: > 100 µM |
| CC(=O)OC(OC(C)=O)c1ccc2ccc3cccc4ccc1c2c34 | inactive: 40.1 µM |
| COC(=O)C(C(=O)Cc1ccccc1[N+](=O)[O-])C(=O)OC | inactive: > 100 µM |
| N#Cc1nc(C2SCCCS2)oc1N | inactive: > 100 µM |
| CCOC(=O)c1c(N2CCOCC2)ncn(-c2cccc(Cl)c2)c1=O | inactive: > 100 µM |
| c1ccc(C2=NOC3(c4ccccc4)SC4CCCCC4CN23)cc1 (stereo unspecified) | inactive: 46.8 µM |
| O=C1NC(c2ccccc2)N=C2Oc3ccccc3C=C12 (stereo unspecified) | active: 0.0546 µM |
| CN(C)CCNC(=O)Cn1ccc(=O)c2c([N+](=O)[O-])cccc21 | inactive: > 100 µM |
| CC1(C)CC(c2c[nH]c3ccccc23)=CC2=Nc3ccccc3C21O (stereo unspecified) | inactive: > 100 µM |
| CCCCCCCCCC1CC(=O)OC2=C1C(=O)CCC2 (stereo unspecified) | inactive: > 100 µM |
| CC1=NN(c2nc(N)nc(CCl)n2)C(C)(C)C1 | inactive: 42.4 µM |
| O=C(O)c1ccccc1C(=O)Nc1cc2c(cc1Br)-c1ccccc1C2=O | inactive: > 100 µM |
| COc1cc(OC)c2c(c1OC)OCC(Cc1ccc(O)cc1)C2=O (stereo unspecified) | inactive: > 25 µM |
| Cn1c2ccc(F)cc2c2ccc3c(c21)C(=O)C=CC3=O | inactive: 28.8 µM |
| c1ccc([B-]23Oc4ccccc4[NH+]2c2ccccc2O3)cc1 (stereo unspecified) | inactive: > 100 µM |
| COc1cc(CC(C(=O)O)C(=O)O)c(OC)cc1CC(C(=O)O)C(=O)O | inactive: > 100 µM |
| O=C1NC(=O)C(C(=O)C(=O)Nc2cc(Cl)ccc2Cl)C(=O)N1 | inactive: > 100 µM |
| N=c1[nH]cnc2c1nnn2C1C=CC(COS(N)(=O)=O)C1 (stereo unspecified) | inactive: 20 µM |
| CC(=O)NC1C(OCc2ccccc2)OC(CO)C(O)C1OCC(=O)NC(C)C(=O)NC(CCC(=O)NCCCCCNc1c2ccccc2nc2cccc([N+](=O)[O-])c12)C(N)=O (stereo unspecified) | active: < 0.0001 µM |
| O=C(NNC(=S)Nc1ccccc1)c1nsc2ccccc12 | inactive: 32.4 µM |
| COc1ccc(CCN2C(=O)C=CC2=O)cc1OC | inactive: 17.7 µM |

| Compound | GI50 |
| --- | --- |
| CCCc1c(C(=O)OCC)[nH]c(-c2ccc(-c3[nH]c(C(=O)OCC)c(CCC)c3C(=O)OCC)s2)c1C(=O)OCC | inactive: > 100 µM |
| O=C1C(Cl)C(c2ccccc2O)N1n1cnc2ccccc2c1=O (stereo unspecified) | inactive: 58.3 µM |
| COC(=O)C(=O)C(C(=O)C(=O)Nc1ccc([N+](=O)[O-])cc1)c1nc2ccccc2nc1O (stereo unspecified) | inactive: > 100 µM |
| CCCCCCCCCCCCOC(=N)N1CCOCC1 | inactive: 16.5 µM |
| C[C@]12CCC(=O)CC1CCCC2=O (stereo partly specified) | inactive: > 100 µM |
| COC(=O)[C@@H](NC(=O)N(CCC#N)CCCN(C(=O)N[C@H](Cc1ccccc1)C(=O)OC)c1ccccc1)C(C)C | inactive: > 100 µM |
| CC(C)(C)OC(=O)n1c2ccccc2c2c(=O)nc(N3CCCCC3)sc21 | inactive: > 100 µM |
| Cc1ccc(S(=O)(=O)Oc2ccc(OS(=O)(=O)c3ccc(C)cc3)c3c2C(=O)c2ccccc2C3=O)cc1 | inactive: > 100 µM |
| CCCc1nc(NC#N)nc(C(=O)NC23CC4CC(CC(C4)C2)C3)c1C | inactive: > 100 µM |
| COc1ccc(/C=C2\C[C@H]3[C@@H]4CC=C5C[C@@H](O)CC[C@]5(C)[C@H]4CC[C@]3(C)\C2=N\O)cc1 | inactive: 36.3 µM |
| OC(CC(O)(C(F)(F)Cl)C(F)(F)Cl)c1ccccc1 (stereo unspecified) | inactive: > 10 µM |
| Cc1cc(O)c(C(c2cccnc2)c2c(O)cc(C)[nH]c2=O)c(=O)[nH]1 | inactive: > 100 µM |
| COc1ccc(/C(=N/N=c2\[nH]c3ccccc3n2Cc2ccccc2)C(=O)O)cc1 | inactive: 16.6 µM |
| CCN(CC)CCOc1ccc(C(=C2CCCCC2)c2ccc(OCCN(CC)CC)cc2)cc1 | inactive: 1.5 µM |
| CCOC(=O)C(C[Si](C)(C)C)P(=O)(OCC)OCC (stereo unspecified) | inactive: > 100 µM |
| O=C(/C=C/c1ccc(O)c(O)c1)OCCc1ccc2ccccc2c1 | inactive: 11.9 µM |
| C=CCOC(=O)N1c2ccc(O[Si](C)(C)C(C)(C)C)cc2[C@@]23O[C@@]24[C@@H]1C#C/C=C\C#C[C@]3(O)C(OC)(OC)C[C@@H]4C | inactive: > 100 µM |
| O=C(/C=C1\Nc2ccccc2C(=O)N1c1ccccc1Cl)c1ccccc1 | inactive: > 100 µM |
| COC1/C=C/C(C)C(C(C)C(OC)C(C)CCC(=O)C(C)C(CCC(=O)O)OC)OC(=O)/C=C/C=C(\C)CC(OC)CC2=CC(=O)O[C@@H](C(C)C(OC)CC(OC)/C=C/C(C)C(OC)C1)[C@H]2O (stereo partly specified) | inactive: 4.33 µM |
| CCCCCCCCCCCCCCCCCCN(C)CC(COP(=O)([O-])OCC[N+](C)(C)C)OC (stereo unspecified) | inactive: 23.2 µM |
